Experimental findings from the supplement of paper PMC10369915 are described below.

The other results are listed elsewhere or left out. Cut-off read from the data, not from the text of the source: active = 3.2 or more and inactive = the rest. Most of these values are background signal.
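Note: displayed peptides selected on beads carrying the immobilized SH2 domain, with library peptides lacking any tyrosine serving as negative controls.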

One experiment addresses SHP2 C-SH2 domain E139D. As to the kind of experiment: enrichment score (SH2-bound / input frequency) (ratio); bacterial display of known human phosphotyrosine sites (pTyr-Var adds point mutants) read by sequencing; higher = stronger binding; tyrosines were phosphorylated by kinases first. The conditions noted are these: peptide library: Human pTyr.
Consider EITEEQAYMMRRAES [THEMIS_HUMAN_541_YA], for which the enrichment score was inactive: 0.647.
Same read-out and setting: under AAQDLVSYLEGSTAS [TIRAP_HUMAN_106] stands inactive: 0.767; under IRRRSSNYRAAATEP [TNNI3_HUMAN_26_YA], inactive: 1.01; under KRDSLGAYASQDANE [TB182_HUMAN_897], inactive: 0.692.
TAVNTTLYEKFTAAG [TIE2_HUMAN_1108_YA]: the enrichment score was inactive: 0.684.
Regarding DHGAEIVYKSPVVSG [TAU_HUMAN_711], the enrichment score is inactive: 0.68.
On to VDPDNEAYEMPSEEG [SYUA_HUMAN_125], for which the enrichment score was inactive: 1.21.
In the case of EIEVKKEYLSSLQPR [THOC5_HUMAN_225], the enrichment score was inactive: 0.769.
DRPQSSIYDPFAGMK [BCAP_HUMAN_594]: the enrichment score is inactive: 0.838.
As to ASAPIGRYTMALQIF [TGM3_HUMAN_111], the enrichment score was inactive: 1.68.
On the same count and under the same terms, under NSPGNAFYSNVLYRP [TMIG2_HUMAN_192] stands inactive: 0.94.
With MAALEKDYEEVGADS [TBA1C_HUMAN_432], the enrichment score was inactive: 1.09.
In the case of EEEGRDEYDEVAMPV [B3AT_HUMAN_904], the enrichment score was inactive: 1.07.
For the molecule TYVNTTLYEKFTYAG [TIE2_HUMAN_1108], the enrichment score was inactive: 1.77.
Same read-out and setting: under MQQCDSPYVVKYYGS [STK3_HUMAN_81] stands inactive: 1.24; under EEITEEQYYMMRRYE [THEMIS_HUMAN_540], inactive: 1.55.
In the case of ESMSQAPYCVRNVRF [THIM_HUMAN_127], the enrichment score was inactive: 1.33.
As to KIFPYEEYASWKTEK [TGFBR2_HUMAN_284], the enrichment score is inactive: 1.1.

The target of a further experiment is SHP2 C-SH2 domain wild-type. The experiment is described as above. The conditions noted are these: peptide library: Human pTyr.
On to EITEEQAYMMRRAES [THEMIS_HUMAN_541_YA], for which the enrichment score is inactive: 0.589.
Regarding AAQDLVSYLEGSTAS [TIRAP_HUMAN_106], the enrichment score is inactive: 0.691.
IRRRSSNYRAAATEP [TNNI3_HUMAN_26_YA]: the enrichment score is inactive: 0.557.
Consider KRDSLGAYASQDANE [TB182_HUMAN_897], for which the enrichment score is inactive: 0.694.
As for TAVNTTLYEKFTAAG [TIE2_HUMAN_1108_YA], the enrichment score is inactive: 0.832.
For the molecule DHGAEIVYKSPVVSG [TAU_HUMAN_711], the enrichment score was inactive: 0.594.
VDPDNEAYEMPSEEG [SYUA_HUMAN_125]: the enrichment score was inactive: 0.976.
Turning to EIEVKKEYLSSLQPR [THOC5_HUMAN_225], the enrichment score is inactive: 0.592.
As to DRPQSSIYDPFAGMK [BCAP_HUMAN_594], the enrichment score is inactive: 0.592.
On the same count and under the same terms, the value for ASAPIGRYTMALQIF [TGM3_HUMAN_111] was inactive: 1.63.
Still for that read-out and setting: under NSPGNAFYSNVLYRP [TMIG2_HUMAN_192] stands inactive: 1.21; under MAALEKDYEEVGADS [TBA1C_HUMAN_432], inactive: 1.12.
On the same count and under the same terms, under EEEGRDEYDEVAMPV [B3AT_HUMAN_904] stands inactive: 0.88.
TYVNTTLYEKFTYAG [TIE2_HUMAN_1108]: the enrichment score is inactive: 1.71.
Regarding MQQCDSPYVVKYYGS [STK3_HUMAN_81], the enrichment score was inactive: 1.29.
Same read-out and setting: under EEITEEQYYMMRRYE [THEMIS_HUMAN_540] stands inactive: 1.41.
On to ESMSQAPYCVRNVRF [THIM_HUMAN_127], for which the enrichment score is inactive: 0.995.
The same measure, in the same setting: the value for KIFPYEEYASWKTEK [TGFBR2_HUMAN_284] was inactive: 1.28.

The target in another experiment is SHP2 N-SH2 domain L43F. The description is as above. As to conditions: peptide library: Human pTyr.
Consider EITEEQAYMMRRAES [THEMIS_HUMAN_541_YA], for which the enrichment score was inactive: 0.609.
For the molecule AAQDLVSYLEGSTAS [TIRAP_HUMAN_106], the enrichment score is inactive: 0.646.
Consider IRRRSSNYRAAATEP [TNNI3_HUMAN_26_YA], for which the enrichment score is inactive: 0.879.
For KRDSLGAYASQDANE [TB182_HUMAN_897], the enrichment score was inactive: 0.612.
As to TAVNTTLYEKFTAAG [TIE2_HUMAN_1108_YA], the enrichment score is inactive: 0.404.
For DHGAEIVYKSPVVSG [TAU_HUMAN_711], the enrichment score was inactive: 0.724.
With VDPDNEAYEMPSEEG [SYUA_HUMAN_125], the enrichment score is inactive: 1.56.
Regarding EIEVKKEYLSSLQPR [THOC5_HUMAN_225], the enrichment score was inactive: 0.651.
For the molecule DRPQSSIYDPFAGMK [BCAP_HUMAN_594], the enrichment score was inactive: 0.74.
The same measure, in the same setting: the value for ASAPIGRYTMALQIF [TGM3_HUMAN_111] was inactive: 1.77.
Take NSPGNAFYSNVLYRP [TMIG2_HUMAN_192]: the enrichment score was inactive: 0.797.
As to MAALEKDYEEVGADS [TBA1C_HUMAN_432], the enrichment score was inactive: 0.878.
On to EEEGRDEYDEVAMPV [B3AT_HUMAN_904], for which the enrichment score was inactive: 0.939.
Regarding TYVNTTLYEKFTYAG [TIE2_HUMAN_1108], the enrichment score is inactive: 1.83.
Still for that read-out and setting: the value for MQQCDSPYVVKYYGS [STK3_HUMAN_81] was inactive: 1.24; that for EEITEEQYYMMRRYE [THEMIS_HUMAN_540] was inactive: 1.38.
On to ESMSQAPYCVRNVRF [THIM_HUMAN_127], for which the enrichment score was inactive: 0.914.
Take KIFPYEEYASWKTEK [TGFBR2_HUMAN_284]: the enrichment score was inactive: 0.9.

The target of a further experiment is SHP2 N-SH2 domain T42A. The description is as above. The conditions noted are these: peptide library: Human pTyr.
Regarding EITEEQAYMMRRAES [THEMIS_HUMAN_541_YA], the enrichment score was inactive: 0.523.
For the molecule AAQDLVSYLEGSTAS [TIRAP_HUMAN_106], the enrichment score was inactive: 0.643.
Same read-out and setting: the value for IRRRSSNYRAAATEP [TNNI3_HUMAN_26_YA] was inactive: 0.609.
In the case of KRDSLGAYASQDANE [TB182_HUMAN_897], the enrichment score was inactive: 0.67.
As to TAVNTTLYEKFTAAG [TIE2_HUMAN_1108_YA], the enrichment score is inactive: 0.528.
Take DHGAEIVYKSPVVSG [TAU_HUMAN_711]: the enrichment score was inactive: 0.671.
As for VDPDNEAYEMPSEEG [SYUA_HUMAN_125], the enrichment score is inactive: 1.27.
Consider EIEVKKEYLSSLQPR [THOC5_HUMAN_225], for which the enrichment score is inactive: 0.683.
On to DRPQSSIYDPFAGMK [BCAP_HUMAN_594], for which the enrichment score was inactive: 0.637.
Still for that read-out and setting: the value for ASAPIGRYTMALQIF [TGM3_HUMAN_111] was inactive: 1.49; that for NSPGNAFYSNVLYRP [TMIG2_HUMAN_192] was inactive: 0.922.
Regarding MAALEKDYEEVGADS [TBA1C_HUMAN_432], the enrichment score is inactive: 1.05.
The same measure, in the same setting: under EEEGRDEYDEVAMPV [B3AT_HUMAN_904] stands inactive: 1.06.
In the case of TYVNTTLYEKFTYAG [TIE2_HUMAN_1108], the enrichment score is inactive: 1.99.
As to MQQCDSPYVVKYYGS [STK3_HUMAN_81], the enrichment score was inactive: 1.09.
For the molecule EEITEEQYYMMRRYE [THEMIS_HUMAN_540], the enrichment score was inactive: 0.961.
For the molecule ESMSQAPYCVRNVRF [THIM_HUMAN_127], the enrichment score is inactive: 1.16.
On to KIFPYEEYASWKTEK [TGFBR2_HUMAN_284], for which the enrichment score is inactive: 0.818.

A further experiment concerns the target SHP2 N-SH2 domain T52S. The description is as above. The conditions noted are these: peptide library: Human pTyr.
With EITEEQAYMMRRAES [THEMIS_HUMAN_541_YA], the enrichment score is inactive: 0.641.
As to AAQDLVSYLEGSTAS [TIRAP_HUMAN_106], the enrichment score is inactive: 0.693.
On to IRRRSSNYRAAATEP [TNNI3_HUMAN_26_YA], for which the enrichment score was inactive: 0.571.
Regarding KRDSLGAYASQDANE [TB182_HUMAN_897], the enrichment score was inactive: 0.732.
Still for that read-out and setting: the value for TAVNTTLYEKFTAAG [TIE2_HUMAN_1108_YA] was inactive: 0.604.
Same read-out and setting: the value for DHGAEIVYKSPVVSG [TAU_HUMAN_711] was inactive: 0.624; that for VDPDNEAYEMPSEEG [SYUA_HUMAN_125] was inactive: 1.19.
Still for that read-out and setting: under EIEVKKEYLSSLQPR [THOC5_HUMAN_225] stands inactive: 0.771; under DRPQSSIYDPFAGMK [BCAP_HUMAN_594], inactive: 0.763; under ASAPIGRYTMALQIF [TGM3_HUMAN_111], inactive: 1.72.
For NSPGNAFYSNVLYRP [TMIG2_HUMAN_192], the enrichment score is inactive: 0.74.
Still for that read-out and setting: under MAALEKDYEEVGADS [TBA1C_HUMAN_432] stands inactive: 1.24; under EEEGRDEYDEVAMPV [B3AT_HUMAN_904], inactive: 0.912; under TYVNTTLYEKFTYAG [TIE2_HUMAN_1108], inactive: 1.72.
In the case of MQQCDSPYVVKYYGS [STK3_HUMAN_81], the enrichment score was inactive: 1.31.
Take EEITEEQYYMMRRYE [THEMIS_HUMAN_540]: the enrichment score was inactive: 1.39.
As for ESMSQAPYCVRNVRF [THIM_HUMAN_127], the enrichment score is inactive: 1.14.
The same measure, in the same setting: the value for KIFPYEEYASWKTEK [TGFBR2_HUMAN_284] was inactive: 1.37.

Another experiment concerns the target SHP2 N-SH2 domain wild-type. The experiment is described as above. As to conditions: peptide library: Human pTyr.
Regarding EITEEQAYMMRRAES [THEMIS_HUMAN_541_YA], the enrichment score was inactive: 0.688.
On to AAQDLVSYLEGSTAS [TIRAP_HUMAN_106], for which the enrichment score was inactive: 0.701.
Take IRRRSSNYRAAATEP [TNNI3_HUMAN_26_YA]: the enrichment score is inactive: 0.529.
Take KRDSLGAYASQDANE [TB182_HUMAN_897]: the enrichment score was inactive: 0.659.
Consider TAVNTTLYEKFTAAG [TIE2_HUMAN_1108_YA], for which the enrichment score is inactive: 0.969.
Regarding DHGAEIVYKSPVVSG [TAU_HUMAN_711], the enrichment score was inactive: 0.636.
Consider VDPDNEAYEMPSEEG [SYUA_HUMAN_125], for which the enrichment score is inactive: 1.59.
On the same count and under the same terms, under EIEVKKEYLSSLQPR [THOC5_HUMAN_225] stands inactive: 0.892; under DRPQSSIYDPFAGMK [BCAP_HUMAN_594], inactive: 0.708; under ASAPIGRYTMALQIF [TGM3_HUMAN_111], inactive: 2.06.
Consider NSPGNAFYSNVLYRP [TMIG2_HUMAN_192], for which the enrichment score was inactive: 0.855.
On to MAALEKDYEEVGADS [TBA1C_HUMAN_432], for which the enrichment score is inactive: 0.794.
In the case of EEEGRDEYDEVAMPV [B3AT_HUMAN_904], the enrichment score is inactive: 1.08.
As to TYVNTTLYEKFTYAG [TIE2_HUMAN_1108], the enrichment score is inactive: 2.43.
For MQQCDSPYVVKYYGS [STK3_HUMAN_81], the enrichment score was inactive: 1.46.
In the case of EEITEEQYYMMRRYE [THEMIS_HUMAN_540], the enrichment score was inactive: 1.77.
On to ESMSQAPYCVRNVRF [THIM_HUMAN_127], for which the enrichment score is inactive: 1.15.
The same measure, in the same setting: the value for KIFPYEEYASWKTEK [TGFBR2_HUMAN_284] was inactive: 1.55.
